# The supplement of paper PMC8728848
# The other results are listed elsewhere or left out.
# B1: PVL (Psathyrella velutina), Q309D1_9AGAR (protein)
# chain: MSVVVISQALPVPTRIPGVADLVGFGNGGVYIIRNSLLIQVVKVINNFGYDAGGWRVEKHVRLLADTTGDNQPDVVGFGENGVWISTNNGNNTFVDPPKMVLANFAYAAGGWRVEKHIRFMADLRKTGRADIVGFGDGGIYISRNNGGGQFAPAQLALNNFGYAQGWRLDRHLRFLADVTGDGLLDVVGFGENQVYIARNSGNGTFQPAQAVVNNFCIGAGGWTISAHPRVVADLTGDRKADILGFGVAGVYTSLNNGNGTFGAVNLVLKDFGVNSGWRVEKHVRCVSSLTNKKVGDIIGFGDAGVYVALNNGNGTFGPVKRVIDNFGYNQGWRVDKHPRFVVDLTGDGCADIVGFGENSVWACMNKGDGTFGPIMKLIDDMTVSKGWTLQKTVRYAANLYL
# What was measured:
# Assay in all cases: glycan array binding signal (z-score within array); higher = stronger binding
# Settings in all cases: glycan notation: IUPAC condensed, linker removed
# Gal(a1-3)Gal = biological target: Gal(a1-3)Gal
# Outline: (§1)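 Columns mapping to the same glycan were averaged after glycan names were converted to IUPAC-condensed notation. The data come from 3228 arrays in the Consortium for Functional Glycomics database, limited to those with an available protein sequence. Binding is reported as a within-array Z-score averaged across arrays of one protein sequence and across linkers.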
# Gal(a1-3)Gal(b1-3)GlcNAc = biological target: Gal(a1-3)Gal(b1-3)GlcNAc
# Outline: as §1
# [1] = biological target: Gal(a1-3)Gal(b1-3)GlcNAc(b1-2)Man
# Outline: as §1
# [2] = biological target: Gal(a1-3)Gal(b1-3)GlcNAc(b1-2)Man(a1-3)[Gal(a1-3)Gal(b1-3)GlcNAc(b1-2)Man(a1-6)]Man(b1-4)GlcNAc(b1-4)GlcNAc
# Outline: as §1
# [3] = biological target: Gal(a1-3)Gal(b1-3)GlcNAc(b1-3)GalNAc
# Outline: as §1
# [4] = biological target: Gal(a1-3)Gal(b1-3)GlcNAc(b1-6)GalNAc
# Outline: as §1
# [5] = biological target: Gal(a1-3)Gal(b1-3)[Fuc(a1-4)]GlcNAc(b1-2)Man(a1-3)[Gal(a1-3)Gal(b1-3)[Fuc(a1-4)]GlcNAc(b1-2)Man(a1-6)]Man(b1-4)GlcNAc(b1-4)GlcNAc
# Outline: as §1
# Gal(a1-3)Gal(b1-4)Glc = biological target: Gal(a1-3)Gal(b1-4)Glc
# Outline: as §1
# Gal(a1-3)Gal(b1-4)GlcNAc = biological target: Gal(a1-3)Gal(b1-4)GlcNAc
# Outline: as §1
# [6] = biological target: Gal(a1-3)Gal(b1-4)GlcNAc(b1-2)Man
# Outline: as §1
# [7] = biological target: Gal(a1-3)Gal(b1-4)GlcNAc(b1-2)Man(a1-3)[Gal(a1-3)Gal(b1-4)GlcNAc(b1-2)Man(a1-6)]Man(b1-4)GlcNAc(b1-4)GlcNAc
# Outline: as §1
# [8] = biological target: Gal(a1-3)Gal(b1-4)GlcNAc(b1-3)GalNAc
# Outline: as §1
# [9] = biological target: Gal(a1-3)Gal(b1-4)GlcNAc(b1-6)GalNAc
# Outline: as §1
# [10] = biological target: Gal(a1-3)Gal(b1-4)[Fuc(a1-3)]GlcNAc
# Outline: as §1
# [11] = biological target: Gal(a1-3)Gal(b1-4)[Fuc(a1-3)]GlcNAc(b1-2)Man(a1-3)[Gal(a1-3)Gal(b1-4)[Fuc(a1-3)]GlcNAc(b1-2)Man(a1-6)]Man(b1-4)GlcNAc(b1-4)GlcNAc
# Outline: as §1
# Gal(a1-3)GalNAc = biological target: Gal(a1-3)GalNAc
# Outline: as §1
# [12] = biological target: Gal(a1-3)[Gal(a1-4)]Gal(b1-4)GlcNAc
# Outline: as §1
# [13] = biological target: Gal(a1-4)Gal(b1-3)GlcNAc(b1-2)Man(a1-3)[Gal(a1-4)Gal(b1-3)GlcNAc(b1-2)Man(a1-6)]Man(b1-4)GlcNAc(b1-4)GlcNAc
# Outline: as §1
# Gal(a1-4)Gal(b1-4)Glc = biological target: Gal(a1-4)Gal(b1-4)Glc
# Outline: as §1
# Gal(a1-4)Gal(b1-4)GlcNAc = biological target: Gal(a1-4)Gal(b1-4)GlcNAc
# Outline: as §1
# [14] = biological target: Gal(a1-4)Gal(b1-4)GlcNAc(b1-2)Man(a1-3)[Gal(a1-4)Gal(b1-4)GlcNAc(b1-2)Man(a1-6)]Man(b1-4)GlcNAc(b1-4)GlcNAc
# Outline: as §1
# [15] = biological target: Gal(a1-4)Gal(b1-4)GlcNAc(b1-3)Gal(b1-4)Glc
# Outline: as §1
# Gal(a1-4)GlcNAc = biological target: Gal(a1-4)GlcNAc
# Outline: as §1
# Gal(a1-6)Glc = biological target: Gal(a1-6)Glc
# Outline: as §1
# Gal(b1-2)Gal = biological target: Gal(b1-2)Gal
# Outline: as §1
# Gal(b1-3)Gal = biological target: Gal(b1-3)Gal
# Outline: as §1
# Gal(b1-3)Gal(b1-4)GlcNAc = biological target: Gal(b1-3)Gal(b1-4)GlcNAc
# Outline: as §1
# Gal(b1-3)GalNAc = biological target: Gal(b1-3)GalNAc
# Outline: as §1
# [16] = biological target: Gal(b1-3)GalNAc(a1-3)[Fuc(a1-2)]Gal(b1-4)Glc
# Outline: as §1
# [17] = biological target: Gal(b1-3)GalNAc(a1-3)[Fuc(a1-2)]Gal(b1-4)GlcNAc
# Outline: as §1
# Gal(b1-3)GalNAc(b1-3)Gal = biological target: Gal(b1-3)GalNAc(b1-3)Gal
# Outline: as §1
# [18] = biological target: Gal(b1-3)GalNAc(b1-3)Gal(a1-4)Gal(b1-4)Glc
# Outline: as §1
# [19] = biological target: Gal(b1-3)GalNAc(b1-4)Gal(b1-4)Glc
# Outline: as §1
# [20] = biological target: Gal(b1-3)GalNAc(b1-4)[Neu5Ac(a2-3)]Gal(b1-4)Glc
# Outline: as §1
# Gal(b1-3)GlcNAc = biological target: Gal(b1-3)GlcNAc
# Outline: as §1
# [21] = biological target: Gal(b1-3)GlcNAc(a1-3)Gal(b1-4)GlcNAc
# Outline: as §1
# [22] = biological target: Gal(b1-3)GlcNAc(a1-6)Gal(b1-4)GlcNAc
# Outline: as §1
# Gal(b1-3)GlcNAc(b1-2)Man = biological target: Gal(b1-3)GlcNAc(b1-2)Man
# Outline: as §1
binder,measurement,setting,value
B1,glycan array binding signal (z-score),Gal(a1-3)Gal,-0.351
same,glycan array binding signal (z-score),Gal(a1-3)Gal(b1-3)GlcNAc,-0.383
same,glycan array binding signal (z-score),[1],-0.368
same,glycan array binding signal (z-score),[2],-0.356
same,glycan array binding signal (z-score),[3],-0.365
same,glycan array binding signal (z-score),[4],-0.439
same,glycan array binding signal (z-score),[5],-0.353
same,glycan array binding signal (z-score),Gal(a1-3)Gal(b1-4)Glc,-0.359
same,glycan array binding signal (z-score),Gal(a1-3)Gal(b1-4)GlcNAc,-0.38
same,glycan array binding signal (z-score),[6],-0.365
same,glycan array binding signal (z-score),[7],-0.351
same,glycan array binding signal (z-score),[8],-0.363
same,glycan array binding signal (z-score),[9],-0.418
same,glycan array binding signal (z-score),[10],-0.368
same,glycan array binding signal (z-score),[11],-0.346
same,glycan array binding signal (z-score),Gal(a1-3)GalNAc,-0.368
same,glycan array binding signal (z-score),[12],-0.363
same,glycan array binding signal (z-score),[13],-0.373
same,glycan array binding signal (z-score),Gal(a1-4)Gal(b1-4)Glc,-0.343
same,glycan array binding signal (z-score),Gal(a1-4)Gal(b1-4)GlcNAc,-0.364
same,glycan array binding signal (z-score),[14],-0.362
same,glycan array binding signal (z-score),[15],-0.334
same,glycan array binding signal (z-score),Gal(a1-4)GlcNAc,-0.37
same,glycan array binding signal (z-score),Gal(a1-6)Glc,-0.349
same,glycan array binding signal (z-score),Gal(b1-2)Gal,-0.366
same,glycan array binding signal (z-score),Gal(b1-3)Gal,-0.347
same,glycan array binding signal (z-score),Gal(b1-3)Gal(b1-4)GlcNAc,-0.377
same,glycan array binding signal (z-score),Gal(b1-3)GalNAc,-0.367
same,glycan array binding signal (z-score),[16],-0.36
same,glycan array binding signal (z-score),[17],-0.363
same,glycan array binding signal (z-score),Gal(b1-3)GalNAc(b1-3)Gal,-0.309
same,glycan array binding signal (z-score),[18],-0.351
same,glycan array binding signal (z-score),[19],-0.363
same,glycan array binding signal (z-score),[20],-0.33
same,glycan array binding signal (z-score),Gal(b1-3)GlcNAc,-0.338
same,glycan array binding signal (z-score),[21],-0.368
same,glycan array binding signal (z-score),[22],-0.362
same,glycan array binding signal (z-score),Gal(b1-3)GlcNAc(b1-2)Man,-0.374
